Measurements as given in the supplement of paper PMC12217912.
Some of the results follow. The full chains were built here from the parent and the listed change. Values near 0.05 are background.

B1: TEV protease; numbered along this chain (parent)
chain: MGESLFKGPRDYNPISSSICHLTNESDGHTTSLYGIGFGPFIITNKHLFRRNNGTLVVQSLHGVFKVKDTTTLQQHLVDGRDMIIIRMPKDFPPFPQKLKFREPQREERICLVTTNFQTKSMSSMVSDTSCTFPSGDGIFWKHWIQTKDGQCGSPLVSTRDGFIVGIHSASNFTNTNNYFTSVPKNFMELLTNQEAQQWVSGWRLNADSVLWGGHKVFMVKPEEPFQPVKEATQL

Variants of: B1
Test: raw area under fraction-flipped curve 0-4 h after induction (AUC4h, not background-subtracted), DNA-recorder readout of cleavage of the substrate (dimensionless); higher = more cleavage of the substrate by the protease variant
Settings: temperature: 34 °C; time window: 0-4 h after rhamnose induction
Method: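 In vivo DNA recorder in E. coli TOP10(DE3) ΔrhaA at 34 °C. Each TEVp single-site mutant (parent TEVp 0) is paired with a single-site variant of the 7-mer TEVs (canonical ENLYFQ|S). The substrate sits between flexible linkers in a Bxb1-sfGFP-TEVs-SsrA fusion, so cleavage stabilises Bxb1 and speeds flipping of a recombination array, read by NGS. The value is the raw area under the fraction-flipped curve over 0-4 h after rhamnose induction (AUC4h), with ≥20 reads per time point. It is not background-subtracted; inactive controls average about 0.047.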
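Also: Bxb1 expression induced with 0.2% (w/v) L-rhamnose at OD600 near 0.5, cultures sampled hourly, flipped fraction per protease–substrate barcode pair counted by paired-end Illumina sequencing.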

Variant | area with substrate ENLYAQS | area with substrate ENLYCQS | area with substrate ENLYDQS | area with substrate ENLYGQS | area with substrate ENLYHQS | area with substrate ENLYIQS | area with substrate ENLYMQS | area with substrate ENLYNQS | area with substrate ENLYTQS | area with substrate ENLYVQS | area with substrate ENLYWQS | area with substrate ENLYYQS | area with substrate ENLYEQS | area with substrate ENLYKQS | area with substrate ENLYLQS | area with substrate ENLYQQS | area with substrate ENLYRQS | area with substrate ENLYSQS | area with substrate ENLYPQS
MGESLFKGPRDYNPISSSICHLTNESDGHTTSLYGIGFGPFIITNKHLFRRNNGTLVVQSLHGVFKVKDTTTLQQHLVDGRDMIIIRMPKDFPPFPQKLKFREPQYEERICLVTTNFQTKSMSSMVSDTSCTFPSGDGIFWKHWIQTKDGQCGSPLVSTRDGFIVGIHSASNFTNTNNYFTSVPKNFMELLTNQEAQQWVSGWRLNADSVLWGGHKVFMVKPEEPFQPVKEATQL [R106Y] | 0.0709 | 0.0771 | 0.0616 | 0.0544 | 0.067 | 0.131 | 0.0773 | 0.068 | 0.0781 | 0.105 | 0.0934 | 0.0889 | – | – | – | – | – | – | –
MGESLFKGPRDYNPISSSICHLTNESDGHTTSLYGIGFGPFIITNKHLFRRNNGTLVVQSLHGVFKVKDTTTLQQHLVDGRDMIIIRMPKDFPPFPQKLKFREPQRIERICLVTTNFQTKSMSSMVSDTSCTFPSGDGIFWKHWIQTKDGQCGSPLVSTRDGFIVGIHSASNFTNTNNYFTSVPKNFMELLTNQEAQQWVSGWRLNADSVLWGGHKVFMVKPEEPFQPVKEATQL [E107I] | 0.0786 | – | 0.0569 | – | – | 0.114 | – | 0.078 | – | 0.12 | 0.0628 | – | 0.0685 | 0.0615 | 0.0806 | 0.0588 | 0.0757 | 0.0755 | –
MGESLFKGPRDYNPISSSICHLTNESDGHTTSLYGIGFGPFIITNKHLFRRNNGTLVVQSLHGVFKVKDTTTLQQHLVDGRDMIIIRMPKDFPPFPQKLKFREPQRPERICLVTTNFQTKSMSSMVSDTSCTFPSGDGIFWKHWIQTKDGQCGSPLVSTRDGFIVGIHSASNFTNTNNYFTSVPKNFMELLTNQEAQQWVSGWRLNADSVLWGGHKVFMVKPEEPFQPVKEATQL [E107P] | 0.0629 | 0.104 | – | 0.01 | – | – | 0.0731 | – | 0.0502 | 0.107 | – | 0.0595 | – | 0.0627 | – | 0.101 | – | 0.0699 | –
MGESLFKGPRDYNPISSSICHLTNESDGHTTSLYGIGFGPFIITNKHLFRRNNGTLVVQSLHGVFKVKDTTTLQQHLVDGRDMIIIRMPKDFPPFPQKLKFREPQREERYCLVTTNFQTKSMSSMVSDTSCTFPSGDGIFWKHWIQTKDGQCGSPLVSTRDGFIVGIHSASNFTNTNNYFTSVPKNFMELLTNQEAQQWVSGWRLNADSVLWGGHKVFMVKPEEPFQPVKEATQL [I110Y] | 0.0512 | – | – | – | – | – | 0.0415 | 0.0642 | – | – | – | – | 0.0417 | – | – | – | – | – | –
MGESLFKGPRDYNPISSSICHLTNESDGHTTSLYGIGFGPFIITNKHLFRRNNGTLVVQSLHGVFKVKDTTTLQQHLVDGRDMIIIRMPKDFPPFPQKLKFREPQREERICLFTTNFQTKSMSSMVSDTSCTFPSGDGIFWKHWIQTKDGQCGSPLVSTRDGFIVGIHSASNFTNTNNYFTSVPKNFMELLTNQEAQQWVSGWRLNADSVLWGGHKVFMVKPEEPFQPVKEATQL [V113F] | 0.0838 | – | – | – | 0.0889 | – | – | 0.0578 | 0.0634 | – | – | – | 0.0697 | – | 0.059 | 0.0805 | – | – | –
MGESLFKGPRDYNPISSSICHLTNESDGHTTSLYGIGFGPFIITNKHLFRRNNGTLVVQSLHGVFKVKDTTTLQQHLVDGRDMIIIRMPKDFPPFPQKLKFREPQREERICLRTTNFQTKSMSSMVSDTSCTFPSGDGIFWKHWIQTKDGQCGSPLVSTRDGFIVGIHSASNFTNTNNYFTSVPKNFMELLTNQEAQQWVSGWRLNADSVLWGGHKVFMVKPEEPFQPVKEATQL [V113R] | 0.0534 | 0.0633 | 0.0553 | 0.0726 | 0.0652 | – | 0.067 | 0.0644 | – | 0.0825 | – | 0.0614 | – | 0.0673 | – | – | 0.043 | 0.0842 | 0.0477
MGESLFKGPRDYNPISSSICHLTNESDGHTTSLYGIGFGPFIITNKHLFRRNNGTLVVQSLHGVFKVKDTTTLQQHLVDGRDMIIIRMPKDFPPFPQKLKFREPQREERICLVETNFQTKSMSSMVSDTSCTFPSGDGIFWKHWIQTKDGQCGSPLVSTRDGFIVGIHSASNFTNTNNYFTSVPKNFMELLTNQEAQQWVSGWRLNADSVLWGGHKVFMVKPEEPFQPVKEATQL [T114E] | 0.0734 | – | – | – | – | 0.102 | – | – | 0.0917 | 0.0894 | – | 0.0586 | – | 0.0162 | – | – | 0.0703 | – | –
MGESLFKGPRDYNPISSSICHLTNESDGHTTSLYGIGFGPFIITNKHLFRRNNGTLVVQSLHGVFKVKDTTTLQQHLVDGRDMIIIRMPKDFPPFPQKLKFREPQREERICLVTANFQTKSMSSMVSDTSCTFPSGDGIFWKHWIQTKDGQCGSPLVSTRDGFIVGIHSASNFTNTNNYFTSVPKNFMELLTNQEAQQWVSGWRLNADSVLWGGHKVFMVKPEEPFQPVKEATQL [T115A] | 0.0741 | – | 0.0593 | – | 0.0652 | 0.0463 | 0.0918 | 0.0602 | – | 0.156 | 0.0619 | 0.0608 | 0.0583 | 0.0706 | – | – | 0.078 | – | 0.0886
MGESLFKGPRDYNPISSSICHLTNESDGHTTSLYGIGFGPFIITNKHLFRRNNGTLVVQSLHGVFKVKDTTTLQQHLVDGRDMIIIRMPKDFPPFPQKLKFREPQREERICLVTTNFPTKSMSSMVSDTSCTFPSGDGIFWKHWIQTKDGQCGSPLVSTRDGFIVGIHSASNFTNTNNYFTSVPKNFMELLTNQEAQQWVSGWRLNADSVLWGGHKVFMVKPEEPFQPVKEATQL [Q118P] | 0.074 | – | 0.0635 | 0.0788 | 0.0725 | – | – | – | 0.0502 | – | – | – | 0.0672 | 0.0476 | – | – | – | – | 0.0689
MGESLFKGPRDYNPISSSICHLTNESDGHTTSLYGIGFGPFIITNKHLFRRNNGTLVVQSLHGVFKVKDTTTLQQHLVDGRDMIIIRMPKDFPPFPQKLKFREPQREERICLVTTNFQVKSMSSMVSDTSCTFPSGDGIFWKHWIQTKDGQCGSPLVSTRDGFIVGIHSASNFTNTNNYFTSVPKNFMELLTNQEAQQWVSGWRLNADSVLWGGHKVFMVKPEEPFQPVKEATQL [T119V] | 0.0714 | – | 0.0218 | 0.106 | 0.0766 | 0.113 | – | 0.079 | 0.0838 | – | 0.0822 | 0.0616 | 0.0596 | 0.0809 | – | – | – | – | 0.0622
MGESLFKGPRDYNPISSSICHLTNESDGHTTSLYGIGFGPFIITNKHLFRRNNGTLVVQSLHGVFKVKDTTTLQQHLVDGRDMIIIRMPKDFPPFPQKLKFREPQREERICLVTTNFQTKSMRSMVSDTSCTFPSGDGIFWKHWIQTKDGQCGSPLVSTRDGFIVGIHSASNFTNTNNYFTSVPKNFMELLTNQEAQQWVSGWRLNADSVLWGGHKVFMVKPEEPFQPVKEATQL [S123R] | 0.0675 | – | – | 0.0598 | 0.0716 | – | 0.105 | 0.0858 | 0.0909 | 0.126 | 0.0821 | 0.0601 | 0.066 | 0.0673 | 0.0955 | 0.064 | 0.0709 | 0.0657 | 0.0782
